Measurements from patent publication US20100316644A1 (ACCELERON PHARMA, published 2010).

What was measured:
Test in all cases: Biacore, steady-state affinity fit
Activin A = molecular target: T1, Activin A (UniProt P08476 311-426)
T1 sequence (looked up): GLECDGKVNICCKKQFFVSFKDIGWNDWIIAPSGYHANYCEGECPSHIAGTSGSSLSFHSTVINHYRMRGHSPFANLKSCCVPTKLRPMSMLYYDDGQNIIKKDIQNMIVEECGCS
Excerpt: (§1) Kd values were obtained by steady-state affinity fit due to very rapid association and dissociation of the complex, which prevented accurate determination of kₒₙ and koff.

Activin B = molecular target: T2, Activin B (UniProt P09529 293-407)
T2 sequence (looked up): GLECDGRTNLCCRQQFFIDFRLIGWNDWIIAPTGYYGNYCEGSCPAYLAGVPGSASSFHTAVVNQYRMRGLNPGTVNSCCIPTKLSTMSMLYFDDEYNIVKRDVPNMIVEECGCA
Excerpt: as §1

[1] = molecular target: T3, Growth and Differentiation Factor-11 (GDF11) (UniProt O95390 299-407)
T3 construct: also called BMP11
T3 sequence (looked up): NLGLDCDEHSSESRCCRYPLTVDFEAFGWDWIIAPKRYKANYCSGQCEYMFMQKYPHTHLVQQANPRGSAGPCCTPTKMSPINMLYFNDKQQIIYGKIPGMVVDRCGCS
Excerpt: as §1

- Kd (Activin A): 18 pM
- Kd (Activin B): 12 pM
- Kd [1]: 31 pM
B1: ActRIIB(25-131)-hFc (Fc fusion)
chain: ETRECIYYNANWELERTNQSGLERCEGEQDKRLHCYASWRNSSGTIELVKKGCWLDDFNCYDRQECVATEENPQVYFCCCEGNFCNERFTHLPEAGGPEVTYEPPPTG[sequence of human IgG1 Fc and a few adjoining residues not given]
notes: also called truncated ActRIIB-Fc fusion protein
